One test addresses αBCL2. Description: BLI; biotinylated BCL2 homolog (25 nM) immobilised on streptavidin biosensors, designed protein in solution at defined concentrations; Octet RED96; 10 mM HEPES pH 7.4, 150 mM NaCl, 3 mM EDTA, 0.05% surfactant P20, 0.5% non-fat dry milk; titrations in triplicate, 1:1 binding model. The conditions noted are these: both partners purified. (Biolayer interferometry detects binding as a change in optical thickness at a sensor tip.)

The next test deals with M-CDP04 (αMCL1). The test is described as above. The conditions noted are these: both partners purified.

Values joined by “and” are separate entries in the source; they are usually repeats but may differ in a detail not shown here. Equal values may be shown once.

Chain of αBCL2 (Q07817 1-209): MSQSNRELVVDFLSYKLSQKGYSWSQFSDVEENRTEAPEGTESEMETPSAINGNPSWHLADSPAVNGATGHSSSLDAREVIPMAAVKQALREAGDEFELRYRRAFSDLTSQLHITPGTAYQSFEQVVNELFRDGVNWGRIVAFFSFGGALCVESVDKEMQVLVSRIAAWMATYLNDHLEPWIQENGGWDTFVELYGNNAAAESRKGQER
Chain of M-CDP04 (αMCL1) (Q07817 1-209): as above

B1: Bcl-xL (natural protein)
chain: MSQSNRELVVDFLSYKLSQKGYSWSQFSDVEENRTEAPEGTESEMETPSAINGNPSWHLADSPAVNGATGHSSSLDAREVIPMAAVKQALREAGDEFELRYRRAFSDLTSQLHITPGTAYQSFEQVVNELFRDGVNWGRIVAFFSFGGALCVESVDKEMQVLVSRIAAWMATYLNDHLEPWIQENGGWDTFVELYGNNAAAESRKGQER
modifications: biotin (enzymatic, BirA)
For orientation: Kd means the concentration at which binding is half-saturated. Low readings indicate tighter binding, high ones weaker binding. The term koff denotes a measure of how fast the partners let go of each other. High values mean a short-lived complex, low ones a long-lived complex. In general, kon refers to the rate constant with which the complex forms. A low value points to slower complex formation. Turning to B1, in the test with αBCL2, the Kd is 3.32 µM and 3.48 µM and 3.81 µM and 3.54 µM; the koff is 0.398 s⁻¹ and 0.404 s⁻¹ and 0.401 s⁻¹ (2×); the kon is 120000 M⁻¹ s⁻¹ and 116000 M⁻¹ s⁻¹ and 105000 M⁻¹ s⁻¹ and 114000 M⁻¹ s⁻¹. Moreover, in the test with M-CDP04 (αMCL1), the Kd is 355 µM and 332 µM and 340 µM and 342 µM; the off-rate (koff) was 0.762 s⁻¹ and 0.764 s⁻¹ and 0.594 s⁻¹ and 0.707 s⁻¹; the kon is 2150 M⁻¹ s⁻¹ and 2300 M⁻¹ s⁻¹ and 1750 M⁻¹ s⁻¹ and 2070 M⁻¹ s⁻¹.

The values are drawn from PMC5127641 (eLife, 2016).
